# Measurements: PubChem BioAssay (NCATS)
# Where “and” joins values, the source holds several entries; their conditions need not be identical. Equal values may be shown once. This list was built around the results that the source calls inconclusive (neither active nor inactive); the mix of calls is not that of the screen. For some of these results: Potencies of inconclusive entries are doubtful fits and often do not repeat. Calls of active or inactive are those of the source. Unless noted, calls come from the whole dose curve; as a rule, active = well fitted curve in the direction sought with a large enough effect; inconclusive = small, poorly fitted or top-dose-only effect, or another doubt; inactive = no such curve, though single readings can be large; an effect the other way counts as inactive or inconclusive.
# Key:
# [1] = AP1 Signaling Pathway (AID 357; active = well fitted curve in either direction with a large enough effect, not every such curve was filed as active; inconclusive = small, poorly fitted or top-dose-only effect, or another doubt; note: top concentration of the series differs between compounds; % is set by controls: 0 for no effect and ±100 for the full control effect); conditions: ME-180 AP-1-bla reporter, EGF-induced, beta-lactamase ratio, 5 h; at 17.2 µM (top of the series) unless noted
# Procedure, shortened: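 ME-180 cells with beta-lactamase reporter under AP-1 response element, stimulated with EC50 EGF; compounds tested in titration series, 5 h at 37 °C. CCF4 substrate added 2.5 h at room temperature; 460/530 nm emission ratio gave %activity and AC50.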
# [2] = molecular target: Glucocorticoid receptor (Homo sapiens) (UniProt P04150); assay: GR-GFP Redistribution (AID 450;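 active = compounds whose dose series gives a full or clear partial fitted curve of increased nuclear translocation; inconclusive = weak partial curve or effect only at the top dose; inactive = no dose-dependent translocation response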; note: potency is the fitted concentration of half-maximal effect); conditions: U2OS GR-GFP nuclear translocation, laser cytometry, 2 h
# Sequence of UniProt P04150 (P04150 whole entry, looked up, the tested form may be a part): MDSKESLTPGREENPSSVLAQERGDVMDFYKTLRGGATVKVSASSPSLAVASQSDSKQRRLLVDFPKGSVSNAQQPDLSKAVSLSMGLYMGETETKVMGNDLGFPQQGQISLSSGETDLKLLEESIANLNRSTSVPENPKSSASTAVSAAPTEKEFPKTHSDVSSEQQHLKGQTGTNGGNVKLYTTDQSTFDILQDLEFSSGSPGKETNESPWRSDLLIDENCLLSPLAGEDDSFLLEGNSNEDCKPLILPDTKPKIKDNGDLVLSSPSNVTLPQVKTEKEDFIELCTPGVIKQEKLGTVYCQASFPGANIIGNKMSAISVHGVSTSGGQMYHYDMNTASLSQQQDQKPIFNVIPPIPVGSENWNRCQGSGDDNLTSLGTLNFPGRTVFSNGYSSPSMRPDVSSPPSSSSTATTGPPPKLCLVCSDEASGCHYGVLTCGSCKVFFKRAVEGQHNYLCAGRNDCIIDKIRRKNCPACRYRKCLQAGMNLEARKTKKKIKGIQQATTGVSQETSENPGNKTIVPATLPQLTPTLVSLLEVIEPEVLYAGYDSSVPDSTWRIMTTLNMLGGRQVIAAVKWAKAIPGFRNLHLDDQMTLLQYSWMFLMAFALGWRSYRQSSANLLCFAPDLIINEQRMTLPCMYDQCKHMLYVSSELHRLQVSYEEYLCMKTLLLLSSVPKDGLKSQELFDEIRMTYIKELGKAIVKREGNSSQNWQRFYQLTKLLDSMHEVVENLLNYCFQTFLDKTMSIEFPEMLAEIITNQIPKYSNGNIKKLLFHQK
# [3] = molecular target: Glucocorticoid receptor (Homo sapiens) (UniProt P04150); assay: GR-EFC Redistribution (AID 451; calls by dose curve; note: potency is the fitted concentration of half-maximal effect); conditions: CHO-K1 GR-EFC translocation, beta-gal luminescence, 2 h
# Procedure, shortened: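 CHO-K1 cells stably expressing nuclear-localized β-gal enzyme acceptor and GR fused C-terminally to the enzyme donor fragment; ligand-driven nuclear translocation restores β-gal by complementation. Compounds titrated up to 46 uM final, 2 h at 37 °C; luminescence read.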
# [4] = molecular target: Guanine nucleotide-binding protein G(i) subunit alpha-1 (Homo sapiens) (UniProt P63096); assay: qHTS Assay for Inhibitors of RGS12 GoLoco Motif Activity (Green Fluorophore) (AID 879); note: potency is the fitted concentration of half-maximal effect
# Sequence of UniProt P63096 (P63096 whole entry, looked up): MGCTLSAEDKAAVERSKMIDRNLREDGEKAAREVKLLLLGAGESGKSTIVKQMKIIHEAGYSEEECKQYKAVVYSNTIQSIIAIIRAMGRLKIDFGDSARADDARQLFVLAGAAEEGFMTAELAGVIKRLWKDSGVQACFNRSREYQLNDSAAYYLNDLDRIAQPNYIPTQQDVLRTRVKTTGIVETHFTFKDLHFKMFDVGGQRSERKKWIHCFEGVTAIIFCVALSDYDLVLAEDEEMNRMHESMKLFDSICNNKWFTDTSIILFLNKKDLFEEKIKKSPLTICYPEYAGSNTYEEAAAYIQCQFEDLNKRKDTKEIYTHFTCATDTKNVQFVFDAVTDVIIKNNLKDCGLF
# Procedure, shortened: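 Fluorescence polarization assay: 50 nM Gαi1 with 10 nM FITC-labeled RGS12 GoLoco peptide in 10 mM Tris pH 7.5, 150 mM NaCl, 0.1 mM GDP, 0.05% NP40, 10 min at room temperature with compound.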
# [5] = molecular target: Pyruvate kinase PKM (Homo sapiens) (UniProt P14618); assay: qHTS Assay for Activators of Human Muscle Pyruvate Kinase (AID 954; active = well fitted curve in the direction sought with a large enough effect, not every such curve was filed as active; inconclusive = small, poorly fitted or top-dose-only effect, or effect the other way, or another doubt; inactive = no such curve, though single readings can be large or run the other way; note: potency is the fitted concentration of half-maximal effect); conditions: purified human muscle pyruvate kinase, luciferase-coupled luminescence, 1 h
# Sequence of UniProt P14618 (P14618 whole entry, looked up): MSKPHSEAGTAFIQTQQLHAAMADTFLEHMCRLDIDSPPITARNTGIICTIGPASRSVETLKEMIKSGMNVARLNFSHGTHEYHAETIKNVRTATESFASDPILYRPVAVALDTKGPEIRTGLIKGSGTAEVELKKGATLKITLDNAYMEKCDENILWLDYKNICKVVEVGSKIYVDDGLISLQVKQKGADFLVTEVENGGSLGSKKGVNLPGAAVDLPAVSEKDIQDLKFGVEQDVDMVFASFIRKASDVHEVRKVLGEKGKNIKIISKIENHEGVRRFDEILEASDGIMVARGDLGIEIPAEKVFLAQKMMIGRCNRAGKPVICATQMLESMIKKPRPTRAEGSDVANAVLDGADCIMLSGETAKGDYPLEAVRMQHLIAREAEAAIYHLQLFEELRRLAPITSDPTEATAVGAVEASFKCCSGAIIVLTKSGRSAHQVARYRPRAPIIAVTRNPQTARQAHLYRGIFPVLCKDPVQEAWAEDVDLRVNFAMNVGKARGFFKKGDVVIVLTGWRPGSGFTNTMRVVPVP
# Procedure, shortened: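 Reaction: 0.1 nM purified PKM2 with 0.5 mM phosphoenolpyruvate and 0.1 mM ADP, room temperature, 1 h. Readout: luciferase-based ATP luminescence after stop reagent. Activators judged against a 0.3 nM enzyme column.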
# [6] = Cellular Toxicity (caspase-3) BJ (AID 658); conditions: Potency: caspase-3 activation; note: potency is the fitted concentration of half-maximal effect;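 for caspase-3 activation: cells exposed to compound for 16 hours; 0% = DMSO basal and 100% = 10 µM staurosporine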
# Procedure, shortened: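 Luminescent aminoluciferin-substrate cleavage reports caspase 3/7 activity in normal human BJ fibroblasts after 16 hr compound exposure at 37 °C. Normalized to DMSO (basal) and 10 uM staurosporine (100%); AC50 from Hill fit of concentration-response.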
# [7] = molecular target: Cytochrome P450 3A4 (Homo sapiens) (UniProt P08684); assay: qHTS Assay for Activators of Cytochrome P450 3A4 (AID 885); conditions: recombinant CYP3A4, Luciferin-PPXE luminescence, 60 min; activity change, positive = activation: at 57.1 µM (top of the series); note: nearly all actives have a fitted effect of over 65% in size; note: potency is the fitted concentration of half-maximal effect
# Sequence of UniProt P08684 (P08684 whole entry, looked up): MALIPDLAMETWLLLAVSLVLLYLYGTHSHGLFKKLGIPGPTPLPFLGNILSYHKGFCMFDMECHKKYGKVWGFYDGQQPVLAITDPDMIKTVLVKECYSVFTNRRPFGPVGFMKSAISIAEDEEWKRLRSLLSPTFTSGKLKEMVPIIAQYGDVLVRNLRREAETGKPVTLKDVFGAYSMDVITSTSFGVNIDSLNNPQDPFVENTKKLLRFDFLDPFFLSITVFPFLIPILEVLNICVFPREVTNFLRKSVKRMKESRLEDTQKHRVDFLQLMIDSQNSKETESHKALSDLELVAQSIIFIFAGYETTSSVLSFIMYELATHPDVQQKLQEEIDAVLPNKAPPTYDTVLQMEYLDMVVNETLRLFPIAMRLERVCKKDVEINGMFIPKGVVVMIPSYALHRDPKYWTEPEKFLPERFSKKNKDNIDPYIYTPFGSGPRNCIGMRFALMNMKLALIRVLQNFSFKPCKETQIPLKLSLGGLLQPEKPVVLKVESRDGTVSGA
# Procedure, shortened: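 Steps: enzyme/substrate mix dispensed; compound added, 10 min RT; NADPH regeneration solution added, 60 min RT; luciferin detection buffer stops reaction; 20 min later luminescence measured.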
# [8] = Cellular Toxicity (caspase-3) MRC-5 (AID 659); conditions: Potency: caspase-3 activation;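 note: potency is the fitted concentration of half-maximal effect; cells exposed to compound for 16 h at 37 °C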
# Procedure, shortened: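 Luminescence from caspase-cleaved aminoluciferin substrate (Caspase-Glo 3/7, 1 hr RT) reports caspase 3/7 activity in MRC-5 lung fibroblasts after 16 hr compound exposure. Normalized to DMSO basal and 10 uM staurosporine as 100%; AC50 from Hill fits.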
# [9] = molecular target: Voltage-gated inwardly rectifying potassium channel KCNH2 (Homo sapiens) (UniProt Q12809); assay: qHTS Assay for Small Molecule Inhibitors of the Human hERG Channel Activity (AID 588834);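 note: lower thallium flux fluorescence means stronger hERG block; nearly all actives have a fitted effect of over 50% in size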; note: potency is the fitted concentration of half-maximal effect; for activity change, negative = inhibition: top concentration of the series differs between compounds; % is set by controls: 0 for no effect and ±100 for the full control effect
# Sequence of UniProt Q12809 (Q12809 whole entry, looked up): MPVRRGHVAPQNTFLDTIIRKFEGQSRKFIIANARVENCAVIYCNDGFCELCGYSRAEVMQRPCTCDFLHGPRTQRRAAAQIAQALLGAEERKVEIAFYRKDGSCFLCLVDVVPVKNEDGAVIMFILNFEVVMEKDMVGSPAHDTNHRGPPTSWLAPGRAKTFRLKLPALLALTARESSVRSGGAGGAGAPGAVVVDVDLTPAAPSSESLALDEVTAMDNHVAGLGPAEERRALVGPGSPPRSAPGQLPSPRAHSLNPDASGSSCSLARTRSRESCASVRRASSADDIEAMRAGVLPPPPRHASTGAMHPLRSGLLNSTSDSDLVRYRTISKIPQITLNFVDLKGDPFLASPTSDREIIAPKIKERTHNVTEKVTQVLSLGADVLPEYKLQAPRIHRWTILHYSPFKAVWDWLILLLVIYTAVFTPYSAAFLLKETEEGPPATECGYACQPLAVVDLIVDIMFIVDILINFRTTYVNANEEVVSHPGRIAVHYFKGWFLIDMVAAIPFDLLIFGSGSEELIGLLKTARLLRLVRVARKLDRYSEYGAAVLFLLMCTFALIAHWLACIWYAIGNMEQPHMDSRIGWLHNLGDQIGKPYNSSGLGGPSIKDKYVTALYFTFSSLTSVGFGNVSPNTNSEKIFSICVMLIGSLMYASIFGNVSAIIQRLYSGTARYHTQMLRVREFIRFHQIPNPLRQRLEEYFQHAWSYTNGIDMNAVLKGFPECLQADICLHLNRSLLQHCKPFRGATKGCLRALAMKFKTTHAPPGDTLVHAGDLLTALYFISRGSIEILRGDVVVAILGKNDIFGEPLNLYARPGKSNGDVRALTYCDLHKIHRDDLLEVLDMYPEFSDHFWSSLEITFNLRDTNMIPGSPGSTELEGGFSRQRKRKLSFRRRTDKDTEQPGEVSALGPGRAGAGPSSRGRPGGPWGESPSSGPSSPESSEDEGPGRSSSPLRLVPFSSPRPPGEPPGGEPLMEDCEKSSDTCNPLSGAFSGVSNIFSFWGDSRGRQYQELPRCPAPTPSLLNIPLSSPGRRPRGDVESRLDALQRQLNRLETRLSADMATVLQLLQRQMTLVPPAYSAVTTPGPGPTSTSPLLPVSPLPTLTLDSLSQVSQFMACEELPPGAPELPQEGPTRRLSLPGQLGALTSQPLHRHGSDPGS
# Procedure, shortened: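 Concentration-response qHTS measuring drop in thallium-sensitive dye signal. U2OS cells carrying BacMam hERG; compound exposure ~10 min, then stimulation buffer and 2 min read at 1 sec intervals.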
# [10] = molecular target: Cytochrome P450 2C9 (Homo sapiens) (UniProt P11712); assay: qHTS Assay for Inhibitors and Substrates of Cytochrome P450 2C9 (AID 883); note: nearly all actives have a fitted effect of over 60% in size; note: potency is the fitted concentration of half-maximal effect; for activity change, negative = inhibition: % is set by controls: 0 for no effect and ±100 for the full control effect
# Sequence of UniProt P11712 (P11712 whole entry, looked up): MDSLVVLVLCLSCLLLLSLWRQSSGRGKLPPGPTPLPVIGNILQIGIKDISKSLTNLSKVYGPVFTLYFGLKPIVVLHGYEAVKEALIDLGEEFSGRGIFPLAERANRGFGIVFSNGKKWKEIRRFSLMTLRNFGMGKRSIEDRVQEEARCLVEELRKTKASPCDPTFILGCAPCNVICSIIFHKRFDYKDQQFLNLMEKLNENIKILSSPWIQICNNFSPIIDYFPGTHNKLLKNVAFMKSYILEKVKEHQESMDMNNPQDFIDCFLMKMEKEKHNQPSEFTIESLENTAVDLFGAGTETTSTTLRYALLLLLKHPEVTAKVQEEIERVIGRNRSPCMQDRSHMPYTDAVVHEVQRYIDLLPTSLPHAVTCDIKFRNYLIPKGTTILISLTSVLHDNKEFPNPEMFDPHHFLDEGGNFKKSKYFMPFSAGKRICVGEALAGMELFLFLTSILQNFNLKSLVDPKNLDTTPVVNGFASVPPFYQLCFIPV
# Procedure, shortened: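 A luminogenic readout tracked human CYP2C9 (10nM) converting deoxyluciferin (100uM, at KM) in 25mM KPO4 during 60 min at 37C with regenerated NADPH. Values normalized to 57uM sulphaphenazole as complete inhibition.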
# [11] = molecular target: Cytochrome P450 2C19 (Homo sapiens) (UniProt P33261); assay: qHTS Assay for Inhibitors and Substrates of Cytochrome P450 2C19 (AID 899); note: potency is the fitted concentration of half-maximal effect; nearly all actives have a fitted effect of over 60% in size
# Sequence of UniProt P33261 (P33261 whole entry, looked up): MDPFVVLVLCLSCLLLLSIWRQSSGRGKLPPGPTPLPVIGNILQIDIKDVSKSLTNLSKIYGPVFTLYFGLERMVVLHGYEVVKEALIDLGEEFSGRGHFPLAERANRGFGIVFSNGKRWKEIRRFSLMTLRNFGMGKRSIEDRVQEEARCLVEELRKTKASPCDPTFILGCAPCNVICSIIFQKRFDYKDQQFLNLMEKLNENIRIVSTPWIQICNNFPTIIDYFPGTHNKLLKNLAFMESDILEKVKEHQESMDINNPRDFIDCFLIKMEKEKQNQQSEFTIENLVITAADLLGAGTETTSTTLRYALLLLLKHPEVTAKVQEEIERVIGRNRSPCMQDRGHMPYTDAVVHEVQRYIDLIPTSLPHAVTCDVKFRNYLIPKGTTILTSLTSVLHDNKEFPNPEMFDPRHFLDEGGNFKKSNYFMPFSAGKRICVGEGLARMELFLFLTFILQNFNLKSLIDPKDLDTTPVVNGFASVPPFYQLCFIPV
# Procedure, shortened: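 NADPH-dependent conversion of Luciferin-H EGE (10uM, at KM) by 5nM enzyme in 50mM KPO4, 60 min at 37C following 10 min compound preincubation. Stopped with luciferin detection buffer; luminescence read after 20 min.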
# [12] = Cellular Toxicity (caspase-3) HepG2 (AID 654); note: potency is the fitted concentration of half-maximal effect
# Procedure, shortened: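 HepG2 cells (1500/well) were treated 16 h at 37 °C in complete medium, then caspase 3/7 activity was read by Caspase-Glo luminescence. Data were normalized to DMSO and 100 uM tamoxifen; AC50 came from Hill-equation fits of qHTS concentration-response.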
# CP262 = assay: qHTS profiling for inhibitors of Plasmodium falciparum proliferation (AID 504749); note: nearly all actives have a fitted effect of over 60% in size; note: potency is the fitted concentration of half-maximal effect;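 for activity, negative = inhibition: 0% = DMSO vehicle and full inhibition = artemisinin control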; conditions: P. falciparum in erythrocytes, SYBR Green DNA, 72 h; series mostly up to 28.7 µM
# Procedure, shortened: (§1)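 Parasite proliferation within erythrocytes, 72 h exposure. Endpoint: SYBR Green I fluorescence after overnight lysis at room temperature. Controls: 0.29 uM artemisinin, DMSO.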
# CP268 = assay: as above; conditions: P. falciparum in erythrocytes, SYBR Green DNA, 72 h; series mostly up to 28.7 µM
# Procedure, shortened: as §1
# CP291 = assay: as above; conditions: P. falciparum in erythrocytes, SYBR Green DNA, 72 h; activity, negative = inhibition: at 28.7 µM (top of the series)
# Procedure, shortened: as §1
# CP297 = assay: as above; conditions: P. falciparum in erythrocytes, SYBR Green DNA, 72 h; series mostly up to 28.7 µM
# Procedure, shortened: as §1
# CP325 = assay: as above; conditions: P. falciparum in erythrocytes, SYBR Green DNA, 72 h; series mostly up to 28.7 µM
# Procedure, shortened: as §1
# CP335 = assay: as above; conditions: P. falciparum in erythrocytes, SYBR Green DNA, 72 h; series mostly up to 28.7 µM
# Procedure, shortened: as §1
# W2 = assay: as above; conditions: P. falciparum in erythrocytes, SYBR Green DNA, 72 h; series mostly up to 28.7 µM
# Procedure, shortened: as §1
# [13] = molecular target: 3',5'-cyclic-AMP phosphodiesterase 4B (Homo sapiens) (UniProt Q07343); assay: qHTS Assay for Inhibitors of PDE-IV (AID 607; active = well fitted activation curve with a large enough effect in the main read-out, with a control signal flat, not every such curve was filed as active; inconclusive = small, poorly fitted or top-dose-only effect, or effect the other way, or a change in a side signal; note: potency is the fitted concentration of half-maximal effect); conditions: HEK293 ACTOne CNG channel cells, membrane potential fluorescence; activation (PDE inhibition): at 22.9 µM (top of the series)
# Sequence of UniProt Q07343 (Q07343 whole entry, looked up): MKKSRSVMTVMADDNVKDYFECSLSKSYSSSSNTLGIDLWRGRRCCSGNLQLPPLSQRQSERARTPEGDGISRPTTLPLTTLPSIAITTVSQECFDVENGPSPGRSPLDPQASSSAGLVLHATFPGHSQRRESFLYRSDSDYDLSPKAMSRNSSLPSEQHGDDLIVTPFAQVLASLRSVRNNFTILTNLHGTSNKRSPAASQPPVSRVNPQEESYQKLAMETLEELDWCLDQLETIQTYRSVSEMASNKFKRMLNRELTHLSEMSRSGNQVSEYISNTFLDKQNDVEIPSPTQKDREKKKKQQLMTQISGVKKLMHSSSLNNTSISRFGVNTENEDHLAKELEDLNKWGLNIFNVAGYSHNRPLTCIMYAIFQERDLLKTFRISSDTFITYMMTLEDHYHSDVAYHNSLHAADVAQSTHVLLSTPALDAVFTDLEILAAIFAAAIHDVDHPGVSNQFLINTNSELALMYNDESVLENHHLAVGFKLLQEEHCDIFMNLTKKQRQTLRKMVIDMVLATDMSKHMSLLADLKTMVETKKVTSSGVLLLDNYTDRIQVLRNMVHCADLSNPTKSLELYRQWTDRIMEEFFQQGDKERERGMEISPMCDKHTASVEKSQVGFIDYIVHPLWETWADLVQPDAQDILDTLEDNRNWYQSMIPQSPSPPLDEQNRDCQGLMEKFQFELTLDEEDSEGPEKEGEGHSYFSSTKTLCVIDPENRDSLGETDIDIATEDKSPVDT
# Procedure, shortened: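 The readout is membrane depolarisation from a cAMP-sensing CNG channel, detected with a potential dye at ex 535/em 590. Cells were HEK293-derived (endogenous PDE-IV) at 1000 cells/well, titrated up to 22.9 uM final.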
# Tags give direction and shape of the fitted curve.
smiles,measurement,setting,value
C[N+]1(C)CCc2cc3c(cc2[C@@H]1[C@@H]1OC(=O)c2c1ccc1c2OCO1)OCO3,"activity change, negative = inhibition",[1],inactive: -3.72% [at 38 µM]
COc1cc2cc(c1Cl)N(C)C(=O)C[C@H](OC(=O)C(C)C)[C@]1(C)O[C@@H]1[C@@H](C)[C@H]1C[C@](O)(NC(=O)O1)[C@@H](OC)/C=C\C=C(\C)C2,Potency,[2],active: 0.278 µM
same,Potency,[3],inconclusive: > 9.22 µM [single point]
COC[C@H]1OC(=O)c2coc3c2[C@@]1(C)C1=C(C3=O)[C@H]2CCC(=O)[C@@]2(C)C[C@H]1OC(C)=O,Potency,[2],active: 0.838 µM
same,Potency,[4],active: 25.1 µM
N[C@@H](Cc1cc(O)c(O)cc1O)C(=O)O,Potency,[5],"inconclusive: 0.398 µM [activator, full curve]"
N#C/C=C/C#N,Potency,[6],inactive
C#CCN[C@@H](C)Cc1ccccc1,Potency,[7],"inconclusive: 39.8 µM [activator, single point]"
N#CSCSC#N,Potency,[8],"inconclusive: 6.31 µM [rising, single point]"
ClC1=C(Cl)C2(Cl)C3C(Cl)C(Cl)CC3C1(Cl)C2(Cl)Cl (stereo unspecified),Potency,[9],active: 35.5 µM
CC1=C2[C@@H]3OC(=O)[C@H](C)[C@H]3CC[C@@]2(C)C=CC1=O,Potency,[10],inactive
C[n+]1c(/C=C\c2ccc(O)c3ncccc23)[se]c2ccccc21,Potency,[10],"inconclusive: 6.31 µM [inhibitor, single point]"
same,Potency,[11],"inconclusive: 3.98 µM [inhibitor, single point]"
C=C(C)c1ccccc1 (tested in a mixture with another compound),Potency,[11],"inconclusive: 3.16 µM [inhibitor, partial curve]"
O=C1C2(Cl)C3(Cl)C4(Cl)C(Cl)(Cl)C5(Cl)C3(Cl)C1(Cl)C5(Cl)C24Cl (stereo unspecified),Potency,[12],"inconclusive: 31.6 µM [rising, single point] and inconclusive: 79.4 µM [rising, single point]"
same,Potency,[6],"inconclusive: 31.6 µM [rising, single point] and inconclusive: 50.1 µM [rising, single point]"
same,Potency,[8],"inconclusive: 31.6 µM [rising, single point]"
ClC1=C(Cl)C2(Cl)C3C4CC(C5OC45)C3C1(Cl)C2(Cl)Cl (stereo unspecified),Potency,CP262,"inconclusive: 19 µM [activator, single point]"
same,Potency,CP268,"inconclusive: 16.9 µM [inhibitor, single point]"
same,Potency,CP291,"inconclusive: 10.7 µM [inhibitor, single point]"
same,Potency,CP297,"inconclusive: 10.7 µM [inhibitor, partial curve, poor fit]"
same,Potency,CP325,inactive
same,Potency,CP335,"inconclusive: 12 µM [inhibitor, single point]"
same,Potency,W2,"inconclusive: 19 µM [inhibitor, single point]"
CCCCCC[N+](=O)[O-],Potency,[9],inactive
CN1CSC(=S)N(C)C1,Potency,[9],inactive
Nc1ccc(Oc2ccc(N)cc2)cc1,Potency,[7],inactive
O=[N+]([O-])/C=C/c1ccccc1,Potency,[12],"inconclusive: 15.8 µM [rising, partial curve]"
CCCCCCCCCCCCCC(=O)O[C@H]1[C@@H](C)[C@@]2(O)[C@@H](C=C(CO)C[C@]3(O)C(=O)C(C)=C[C@@H]23)C2C(C)(C)[C@]21OC(C)=O (stereo partly specified),Potency,[13],"inconclusive: 0.00501 µM [activator, full curve, poor fit]"
CC(C)n1cc2c3c(cccc31)[C@@H]1C[C@H](C(=O)O[C@@H](C)[C@H](C)O)CN(C)[C@H]1C2,Potency,[13],"inconclusive: 1.58 µM [rising, single point]"
same,Potency,[4],"inconclusive: 25.1 µM [inhibitor, single point]"
